The other results are listed elsewhere or left out. The energies were worked out here from pooled read counts, against the library average; single values are noisy.
Target: T1, Pho4 (S. cerevisiae) (UniProt P07270)
T1 sequence: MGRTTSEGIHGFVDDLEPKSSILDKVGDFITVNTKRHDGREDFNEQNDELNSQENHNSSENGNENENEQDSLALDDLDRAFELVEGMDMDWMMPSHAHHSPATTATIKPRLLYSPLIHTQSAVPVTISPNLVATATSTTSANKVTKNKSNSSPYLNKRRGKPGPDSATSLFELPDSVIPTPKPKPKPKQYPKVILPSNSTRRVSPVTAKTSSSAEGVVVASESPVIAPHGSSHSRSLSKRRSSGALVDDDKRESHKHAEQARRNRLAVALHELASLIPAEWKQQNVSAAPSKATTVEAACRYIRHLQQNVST
Test: relative binding free energy (BET-seq); higher = weaker binding
Settings: reference: library average

Sequence	relative binding free energy [kcal/mol]
GGACACACGTGGGGGA	-0.16
GGTGGCACGTGTCGTT	0.08
GTCCACACGTGTGGGT	0.09
ATGGCCACGTGGGCGT	-0.19
ACGTTCACGTGGTGAG	0.22
CTCGGCACGTGTGAGT	0
GGATTCACGTGTTAAA	0.34
CTTGTCACGTGGATGA	0.11
TATTGCACGTGAATGG	0.23
GCGGCCACGTGTTGGT	-0.11
GTGAGCACGTGAAAGG	0.33
AGTTTCACGTGGGAGT	0.23
AGATGCACGTGAGCGG	0.17
TTGGCCACGTGTTCGT	-0.16
GTGTGCACGTGAATTT	0.33
CCGGTCACGTGGGGTG	0.01
TGTTTCACGTGGCTAA	0.18
TGTGGCACGTGTGAGA	0.16
TGTGTCACGTGATCGT	-0.03
GTCTACACGTGTTTTT	0.16
AAAGACACGTGGTAGG	-0.17
ATCGTCACGTGTAAGT	0.09
GCGGGCACGTGTTGAT	0

Sequence	relative binding free energy [kcal/mol]
TTGCGCACGTGAGGGC	0.16
TCTGACACGTGGGGGG	-0.04
AGTGTCACGTGTGCAC	0.08
TACTACACGTGGGGGT	-0.07
GGGTGCACGTGGGACG	-0.04
AGAGACACGTGTGCTG	0.1
CGGGTCACGTGGCGCG	0.1
GTAGGCACGTGTGTCA	-0.18
GTAATCACGTGGTTCT	0.11
TTTTGCACGTGGAATG	0.19
GATTTCACGTGTATTA	0.15
CTTGTCACGTGGTGCA	-0.05
AGCGGCACGTGTTCTT	-0.05
AGCTGCACGTGACGTG	0.19
GGTCACACGTGGAGTG	0.08
TTATACACGTGTAGTT	0.1
TCGTGCACGTGTAGTA	-0.07
GCGATCACGTGTGGTT	0.28
CTGTACACGTGTGCGT	0.08
AGGGTCACGTGAAGGG	0.13
AGGAGCACGTGGGGGT	-0.23
TTGGCCACGTGGCGGG	-0.26
TCGTGCACGTGATGCG	0.02

Sequence	relative binding free energy [kcal/mol]
GCAGGCACGTGGGGCT	-0.1
TTTGTCACGTGGTGCG	0.11
TCTAGCACGTGGGGGA	-0.15
GCTGGCACGTGTTTAG	-0.02
TTGTCCACGTGTGCTG	-0.01
GGACTCACGTGGCTGG	0.26
CGGGGCACGTGTGATG	-0.11
AGCGTCACGTGATTTG	0.11
TTTGGCACGTGCGGCA	-0.26
GTTTACACGTGTTGGT	0.33
CGTTGCACGTGGGCGT	-0.45
CGGGGCACGTGCGTTT	-0.08
GTTAGCACGTGGATGG	0.07
TAGCTCACGTGCTGGT	0.32
TCAAACACGTGGAGGT	0.11
GTAACCACGTGGTGGG	-0.11
TTGGCCACGTGTAGCT	0.04
TCTTTCACGTGGAAGG	0.28
GCCGGCACGTGTGGTT	0.05
ATTGACACGTGTATGG	0.01
TCTGGCACGTGCGTAT	-0.11
TACATCACGTGGTGCG	0.13
ATTATCACGTGGCTTT	0.05

Sequence	relative binding free energy [kcal/mol]
TCTTGCACGTGCGTTG	0.05
ATTGGCACGTGACAGG	-0.11
ATTGACACGTGGATGG	0.03
TACTGCACGTGCGGTT	-0.02
GACTGCACGTGTGGTG	0.07
GGGAGCACGTGTGGAT	-0.06
TGGGTCACGTGAGTTT	0.38
CTCGTCACGTGATTGG	0.27
GGGAGCACGTGGCGGC	-0.06
CGGGGCACGTGAGAAT	0.12
GCATGCACGTGGGTCG	-0.15
AGACACACGTGGGTGT	-0.22
TAGTTCACGTGTAAGA	0.39
CGCAGCACGTGGGTAG	-0.18
ATTGTCACGTGTGCTT	0.08
AGAGTCACGTGGAGTG	0.1
CATTTCACGTGGGTTA	0.19
GGGCACACGTGGTGTT	0.02
ACGTTCACGTGGGTGA	0.17
GGGCACACGTGGGATG	-0.02
AGTCACACGTGGTTGC	0.14
GGAAACACGTGGGAGC	0.16
TGTGGCACGTGTATGC	-0.07

Sequence	relative binding free energy [kcal/mol]
TGTTACACGTGTGGTT	0.2
ATTGGCACGTGATAGA	-0.04
GTGCGCACGTGCGGAG	-0.1
AAGCTCACGTGGGGTT	0.23
TGATGCACGTGGCGTT	-0.19
TCAGGCACGTGAGGAT	0.2
TGGGACACGTGCCTGG	-0.12
CGTGTCACGTGGTGAT	0.06
ATCCGCACGTGGGGTG	-0.26
GGCTCCACGTGAAGGG	0.61
CATTGCACGTGGTTTA	0.1
ACAAGCACGTGGGAGG	-0.2
GGTGTCACGTGTGTAT	0.29
AAGGTCACGTGCAGGG	0.01
TTATTCACGTGAGTGA	0.57
CGTTGCACGTGGTTCT	-0.01
AGTTTCACGTGATCAT	0.13
ATGTACACGTGATAGG	0.2
GGATTCACGTGAAGTT	0.45
TTAGGCACGTGTGGGT	-0.1
GGATGCACGTGGTTAG	-0.11
GGGTTCACGTGTAAAG	0.41
ACGGGCACGTGGGGAC	-0.23

Reference: the BET-seq Pho4 binding data (Le et al. 2018)
